From the supplement of paper PMC8728848
The other results are listed elsewhere or left out.

What was measured:
Experiment in all cases: glycan array binding signal (z-score within array); higher = stronger binding
Details in all cases: glycan notation: IUPAC condensed, linker removed
[1] = biological target: Neu5Ac(a2-3)Gal(b1-3)GalNAc
Outline: (§1)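 Glycan array binding is given as a within-array Z-score, which can be read as non-binding when negative. The arrays, 3228 of them, came from the Consortium for Functional Glycomics database and were retained only where the protein sequence was available. Z-scores were averaged across arrays of the same protein sequence at different concentrations or buffers and across linkers.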

[2] = biological target: Neu5Ac(a2-3)Gal(b1-3)GalNAc(b1-3)Gal(a1-4)Gal(b1-4)Glc
Outline: as §1

[3] = biological target: Neu5Ac(a2-3)Gal(b1-3)GalNAc(b1-4)[Neu5Ac(a2-3)]Gal(b1-4)Glc
Outline: as §1

[4] = biological target: Neu5Ac(a2-3)Gal(b1-3)GalNAc(b1-4)[Neu5Ac(a2-8)Neu5Ac(a2-3)]Gal(b1-4)Glc
Outline: as §1

[5] = biological target: Neu5Ac(a2-3)Gal(b1-3)GalNAc6S
Outline: as §1

[6] = biological target: Neu5Ac(a2-3)Gal(b1-3)GlcNAc
Outline: as §1

[7] = biological target: Neu5Ac(a2-3)Gal(b1-3)GlcNAc(b1-2)Man
Outline: as §1

[8] = biological target: Neu5Ac(a2-3)Gal(b1-3)GlcNAc(b1-2)Man(a1-3)[GlcNAc(b1-4)][Neu5Ac(a2-3)Gal(b1-3)GlcNAc(b1-2)Man(a1-6)]Man(b1-4)GlcNAc(b1-4)GlcNAc
Outline: as §1

[9] = biological target: Neu5Ac(a2-3)Gal(b1-3)GlcNAc(b1-2)Man(a1-3)[Neu5Ac(a2-3)Gal(b1-3)GlcNAc(b1-2)Man(a1-6)]Man(b1-4)GlcNAc(b1-4)GlcNAc
Outline: as §1

[10] = biological target: Neu5Ac(a2-3)Gal(b1-3)GlcNAc(b1-3)Gal(b1-3)GlcNAc
Outline: as §1

[11] = biological target: Neu5Ac(a2-3)Gal(b1-3)GlcNAc(b1-3)Gal(b1-4)GlcNAc
Outline: as §1

[12] = biological target: Neu5Ac(a2-3)Gal(b1-3)GlcNAc(b1-3)GalNAc
Outline: as §1

[13] = biological target: Neu5Ac(a2-3)Gal(b1-3)GlcNAc(b1-4)Gal(b1-4)Glc
Outline: as §1

[14] = biological target: Neu5Ac(a2-3)Gal(b1-3)GlcNAc(b1-6)GalNAc
Outline: as §1

[15] = biological target: Neu5Ac(a2-3)Gal(b1-3)GlcNAc6S
Outline: as §1

[16] = biological target: Neu5Ac(a2-3)Gal(b1-3)[Fuc(a1-4)]GlcNAc
Outline: as §1

[17] = biological target: Neu5Ac(a2-3)Gal(b1-3)[Fuc(a1-4)]GlcNAc(b1-3)Gal(b1-3)[Fuc(a1-4)]GlcNAc
Outline: as §1

[18] = biological target: Neu5Ac(a2-3)Gal(b1-3)[Fuc(a1-4)]GlcNAc(b1-3)Gal(b1-4)[Fuc(a1-3)]GlcNAc
Outline: as §1

[19] = biological target: Neu5Ac(a2-3)Gal(b1-3)[GlcNAc(b1-6)]GalNAc
Outline: as §1

[20] = biological target: Neu5Ac(a2-3)Gal(b1-3)[Neu5Ac(a2-6)]GalNAc
Outline: as §1

[21] = biological target: Neu5Ac(a2-3)Gal(b1-3)[Neu5Ac(a2-6)]GlcNAc(b1-3)[Fuc(a1-3)[Gal(b1-4)]GlcNAc(b1-6)]Gal(b1-4)Glc
Outline: as §1

[22] = biological target: Neu5Ac(a2-3)Gal(b1-3)]Neu5Ac(a2-3)Gal(b1-4)]GlcNAc
Outline: as §1

[23] = biological target: Neu5Ac(a2-3)Gal(b1-4)Glc
Outline: as §1

[24] = biological target: Neu5Ac(a2-3)Gal(b1-4)GlcNAc
Outline: as §1

[25] = biological target: Neu5Ac(a2-3)Gal(b1-4)GlcNAc(b1-2)Man
Outline: as §1

[26] = biological target: Neu5Ac(a2-3)Gal(b1-4)GlcNAc(b1-2)Man(a1-3)[GlcNAc(b1-4)][Neu5Ac(a2-3)Gal(b1-4)GlcNAc(b1-2)Man(a1-6)]Man(b1-4)GlcNAc(b1-4)GlcNAc
Outline: as §1

[27] = biological target: Neu5Ac(a2-3)Gal(b1-4)GlcNAc(b1-2)Man(a1-3)[Neu5Ac(a2-3)Gal(b1-4)GlcNAc(b1-2)Man(a1-6)]Man(b1-4)GlcNAc(b1-4)GlcNAc
Outline: as §1

[28] = biological target: Neu5Ac(a2-3)Gal(b1-4)GlcNAc(b1-2)Man(a1-3)[Neu5Ac(a2-3)Gal(b1-4)GlcNAc(b1-2)Man(a1-6)]Man(b1-4)GlcNAc(b1-4)[Fuc(a1-6)]GlcNAc
Outline: as §1

[29] = biological target: Neu5Ac(a2-3)Gal(b1-4)GlcNAc(b1-2)Man(a1-3)[Neu5Ac(a2-6)Gal(b1-4)GlcNAc(b1-2)Man(a1-6)]Man(b1-4)GlcNAc(b1-4)GlcNAc
Outline: as §1

[30] = biological target: Neu5Ac(a2-3)Gal(b1-4)GlcNAc(b1-2)[Neu5Ac(a2-3)Gal(b1-4)GlcNAc(b1-4)]Man(a1-3)[GlcNAc(b1-4)][Neu5Ac(a2-3)Gal(b1-4)GlcNAc(b1-2)[Neu5Ac(a2-3)Gal(b1-4)GlcNAc(b1-6)]Man(a1-6)]Man(b1-4)GlcNAc(b1-4)GlcNAc
Outline: as §1

[31] = biological target: Neu5Ac(a2-3)Gal(b1-4)GlcNAc(b1-2)[Neu5Ac(a2-3)Gal(b1-4)GlcNAc(b1-4)]Man(a1-3)[GlcNAc(b1-4)][Neu5Ac(a2-3)Gal(b1-4)GlcNAc(b1-4)Man(a1-6)]Man(b1-4)GlcNAc(b1-4)GlcNAc
Outline: as §1

[32] = biological target: Neu5Ac(a2-3)Gal(b1-4)GlcNAc(b1-2)[Neu5Ac(a2-3)Gal(b1-4)GlcNAc(b1-6)]Man(a1-6)[Neu5Ac(a2-3)Gal(b1-4)GlcNAc(b1-2)Man(a1-3)]Man(b1-4)GlcNAc(b1-4)GlcNAc
Outline: as §1

[33] = biological target: Neu5Ac(a2-3)Gal(b1-4)GlcNAc(b1-2)[Neu5Ac(a2-3)Gal(b1-4)GlcNAc(b1-6)]Man(a1-6)[Neu5Ac(a2-3)Gal(b1-4)GlcNAc(b1-2)Man(a1-3)][GlcNAc(b1-4)]Man(b1-4)GlcNAc(b1-4)GlcNAc
Outline: as §1

[34] = biological target: Neu5Ac(a2-3)Gal(b1-4)GlcNAc(b1-3)Gal
Outline: as §1

[35] = biological target: Neu5Ac(a2-3)Gal(b1-4)GlcNAc(b1-3)Gal(b1-3)GlcNAc
Outline: as §1

[36] = biological target: Neu5Ac(a2-3)Gal(b1-4)GlcNAc(b1-3)Gal(b1-4)GlcNAc
Outline: as §1

[37] = biological target: Neu5Ac(a2-3)Gal(b1-4)GlcNAc(b1-3)Gal(b1-4)GlcNAc(b1-2)Man(a1-3)[Neu5Ac(a2-3)Gal(b1-4)GlcNAc(b1-3)Gal(b1-4)GlcNAc(b1-2)Man(a1-6)]Man(b1-4)GlcNAc(b1-4)GlcNAc
Outline: as §1

[38] = biological target: Neu5Ac(a2-3)Gal(b1-4)GlcNAc(b1-3)Gal(b1-4)GlcNAc(b1-3)Gal(b1-4)GlcNAc
Outline: as §1

[39] = biological target: Neu5Ac(a2-3)Gal(b1-4)GlcNAc(b1-3)Gal(b1-4)GlcNAc(b1-3)Gal(b1-4)GlcNAc(b1-2)Man(a1-3)[Neu5Ac(a2-3)Gal(b1-4)GlcNAc(b1-3)Gal(b1-4)GlcNAc(b1-3)Gal(b1-4)GlcNAc(b1-2)Man(a1-6)]GalNAc
Outline: as §1

[40] = biological target: Neu5Ac(a2-3)Gal(b1-4)GlcNAc(b1-3)Gal(b1-4)GlcNAc(b1-3)GalNAc
Outline: as §1

[41] = biological target: Neu5Ac(a2-3)Gal(b1-4)GlcNAc(b1-3)Gal(b1-4)GlcNAc(b1-3)[Neu5Ac(a2-3)Gal(b1-4)GlcNAc(b1-3)Gal(b1-4)GlcNAc(b1-6)]GalNAc
Outline: as §1

[42] = biological target: Neu5Ac(a2-3)Gal(b1-4)GlcNAc(b1-3)Gal(b1-4)GlcNAc(b1-6)[Gal(b1-3)]GalNAc
Outline: as §1

[43] = biological target: Neu5Ac(a2-3)Gal(b1-4)GlcNAc(b1-3)Gal(b1-4)[Fuc(a1-3)]GlcNAc
Outline: as §1

[44] = biological target: Neu5Ac(a2-3)Gal(b1-4)GlcNAc(b1-3)GalNAc
Outline: as §1

[45] = biological target: Neu5Ac(a2-3)Gal(b1-4)GlcNAc(b1-3)[Neu5Ac(a2-3)Gal(b1-4)GlcNAc(b1-6)]GalNAc
Outline: as §1

B1: GS7807P-bth-537-23-537 (Bacteroides thetaiotaomicron) (protein)
chain: NYENINSNPYEAPDLSADGYALGSAMNNLAGCVVSPDVNTAQFTDCLLGGPLGGYFADSNAGFTETISNFNPKDDWSRVFLKSDKIIPTLYSNLTQVKLVSQNTNDPVPYAIAQVIKVAAMHRVTDAFGPIPYSQIGANGEIATPYDSQEVTYNTFFDELNAAIATLNENSNEQLVPTADYIYKGDVKKWIRFANSLKLRLAIRIAYANPVKAQQMAEEAVNPANGGVIESNADNATWNYFETSQNPIYVATRYNQVQTSDHGGVPCLTGGDTHAAADIICYMNGYKDNRREKFFTKSEWAGQDYVGMRRGIVIPELKTTGHKYSGVNIAPTSPLYWMNAAEVAFLRAEGQAVFNFSMGGTAESFYNQGIRLSFEQWGADGVEDYLKDDVNKPTAYTDPAGTNTYQNALSNITIKWNDSADKEEKQERIIVQKWIANWQLGNEAWADFRRTGYPKLIPVKENKSGGVVDSEKGARRMPYPLDEFVSNKANVEYAIANYLHGADNMATDVWWASKK
glycan array binding signal (z-score) [1]: -0.218 | glycan array binding signal (z-score) [2]: -0.339 | glycan array binding signal (z-score) [3]: -0.361 | glycan array binding signal (z-score) [4]: -0.381 | glycan array binding signal (z-score) [5]: -0.401 | glycan array binding signal (z-score) [6]: -0.36 | glycan array binding signal (z-score) [7]: -0.048 | glycan array binding signal (z-score) [8]: -0.273 | glycan array binding signal (z-score) [9]: -0.362 | glycan array binding signal (z-score) [10]: -0.379 | glycan array binding signal (z-score) [11]: -0.314 | glycan array binding signal (z-score) [12]: -0.366 | glycan array binding signal (z-score) [13]: -0.398 | glycan array binding signal (z-score) [14]: -0.245 | glycan array binding signal (z-score) [15]: -0.368 | glycan array binding signal (z-score) [16]: -0.367 | glycan array binding signal (z-score) [17]: -0.361 | glycan array binding signal (z-score) [18]: -0.292 | glycan array binding signal (z-score) [19]: -0.357 | glycan array binding signal (z-score) [20]: -0.387 | glycan array binding signal (z-score) [21]: -0.367 | glycan array binding signal (z-score) [22]: -0.345 | glycan array binding signal (z-score) [23]: -0.323 | glycan array binding signal (z-score) [24]: -0.338 | glycan array binding signal (z-score) [25]: -0.033 | glycan array binding signal (z-score) [26]: -0.359 | glycan array binding signal (z-score) [27]: -0.144 | glycan array binding signal (z-score) [28]: -0.383 | glycan array binding signal (z-score) [29]: 0.129 | glycan array binding signal (z-score) [30]: -0.339 | glycan array binding signal (z-score) [31]: -0.363 | glycan array binding signal (z-score) [32]: -0.221 | glycan array binding signal (z-score) [33]: 0.16 | glycan array binding signal (z-score) [34]: -0.399 | glycan array binding signal (z-score) [35]: -0.359 | glycan array binding signal (z-score) [36]: -0.302 | glycan array binding signal (z-score) [37]: -0.026 | glycan array binding signal (z-score) [38]: -0.118 | glycan array binding signal (z-score) [39]: -0.154 | glycan array binding signal (z-score) [40]: -0.392 | glycan array binding signal (z-score) [41]: -0.373 | glycan array binding signal (z-score) [42]: 1 | glycan array binding signal (z-score) [43]: -0.328 | glycan array binding signal (z-score) [44]: -0.371 | glycan array binding signal (z-score) [45]: -0.364
